# Laboratory results reported in the supplement of paper PMC3334620.
# In all, about 33,000 sequences were measured (“E-score (-0.5 to 0.5)”: median about -0.054, highest 2% from about 0.35 on). Some of the results follow.
# Target: T1, Stb5 (UniProt P38699)
# T1 sequence: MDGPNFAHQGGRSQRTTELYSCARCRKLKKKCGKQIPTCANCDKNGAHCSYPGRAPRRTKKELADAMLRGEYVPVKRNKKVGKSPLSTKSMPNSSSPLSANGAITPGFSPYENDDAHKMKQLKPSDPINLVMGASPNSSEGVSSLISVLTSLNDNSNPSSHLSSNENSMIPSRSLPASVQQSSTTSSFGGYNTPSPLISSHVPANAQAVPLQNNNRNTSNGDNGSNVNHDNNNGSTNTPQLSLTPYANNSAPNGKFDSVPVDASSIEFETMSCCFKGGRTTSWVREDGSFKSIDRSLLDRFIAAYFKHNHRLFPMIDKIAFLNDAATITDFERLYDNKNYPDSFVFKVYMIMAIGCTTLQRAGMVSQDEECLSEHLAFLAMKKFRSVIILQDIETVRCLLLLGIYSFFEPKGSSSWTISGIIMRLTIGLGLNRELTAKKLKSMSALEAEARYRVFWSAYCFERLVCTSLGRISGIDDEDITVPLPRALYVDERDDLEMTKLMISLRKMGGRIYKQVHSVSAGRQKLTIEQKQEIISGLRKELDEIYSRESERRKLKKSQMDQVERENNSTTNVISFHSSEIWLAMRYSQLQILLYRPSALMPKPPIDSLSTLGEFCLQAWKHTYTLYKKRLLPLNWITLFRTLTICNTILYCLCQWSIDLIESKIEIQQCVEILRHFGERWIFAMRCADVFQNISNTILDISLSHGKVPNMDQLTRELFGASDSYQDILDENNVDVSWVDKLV
# Test: PBM E-score (8-mer binding enrichment) (E-score (-0.5 to 0.5)); higher = stronger / more preferred TF binding; most listed sequences are background and not binding sites
# Conditions: protein concentration: 200 nM; construct: GST-full length
# Procedure, shortened: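 The E-score, a modified Wilcoxon-Mann-Whitney statistic, was computed by the Universal PBM Analysis Suite for every ungapped eight-base word pooled with its reverse complement. Scans behind it were normalised with masliner after bound GST-tagged yeast transcription factors were detected with fluorescent anti-GST. The proteins, at about 100-200 nM, had been applied to universal all-10-mer Agilent arrays made double-stranded by primer extension.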
row,Sequence,PBM E-score
1,AGTAGGAT,-0.164
2,ATGAGTTA,-0.145
3,ATACGGCA,0.164
4,AACACTAG,-0.135
5,ACGTGTAT,-0.176
6,CCGCGCTA,0.256
7,CTAGATAA,-0.164
8,ATCCTCTG,-0.156
9,AATTGCAT,-0.162
10,GCGATACA,-0.0993
11,ATGGCCCC,0.167
12,CGAAGTAA,-0.0992
13,ATATCAAT,0.00089
14,ACATCTGA,-0.0767
15,CCGTCCTA,0.161
16,ACAGCTAT,-0.275
17,ACGCGTTG,0.103
18,GCTGTTAA,0.232
19,CAGTGACG,-0.0235
20,CTTACGCC,0.111
21,TACATCGA,-0.0768
22,ATCGGGTA,0.114
23,AGGAATCC,-0.145
24,CCAGTTCG,0.0984
25,CAGGCCCA,-0.176

row,Sequence,PBM E-score
1,ATCGAAAC,0.0332
2,GTACCAAC,-0.00359
3,CCTGCGCA,-0.105
4,GCCTAAAA,-0.167
5,ACGCTGAC,0.00893
6,AAGCAATT,-0.142
7,AGATGTGA,-0.0838
8,TATGAAGA,-0.114
9,GCATTTTA,0.178
10,CGTGTGAG,-0.218
11,CATCGACC,0.0202
12,AAAACTCA,-0.142
13,ACGGCACT,0.427
14,GAATGATA,-0.0504
15,CTTCGGTC,0.119
16,ATCTAAAT,0.126
17,CTTTCGCA,-0.0435
18,AACTAAAC,0.0284
19,CGCCGGAG,0.306
20,GCCATCGA,-0.0312
21,CAGGAGGC,-0.098
22,CGGCAAAA,0.245
23,CACGAGGC,-0.0617
24,GGGGTCCA,-0.0316
25,CAAGGTAG,-0.116

row,Sequence,PBM E-score
1,ACGAGGCA,-0.206
2,CGGTCGTA,0.381
3,GCAAAAGC,0.0498
4,AGCGATTC,-0.0853
5,ATTTTATC,0.161
6,AGAGGCCC,-0.168
7,GCCAACCC,-0.171
8,GAGGTTAA,0.0281
9,AAATACGA,-0.0284
10,ACGCTACC,-0.0183
11,ACTCCTTG,-0.00332
12,AGTGAACG,-0.195
13,CCATAGTA,-0.00415
14,CTGCTACC,-0.129
15,CAATTACC,0.191
16,GCTTAGTA,-0.0135
17,ATTCTCGA,-0.188
18,ATCGTGAC,-0.00593
19,CCCTGATA,-0.187
20,GAAGAGTC,-0.178
21,ACGGATGG,0.0651
22,CATTGCCC,-0.155
23,ATGTTAAA,0.0317
24,AGGGCGAG,-0.295
25,AGTAATCC,-0.0793

row,Sequence,PBM E-score
1,ACGAGGGC,-0.0712
2,GCCTCATA,-0.12
3,ACTGGTCG,-0.0341
4,GACAGCAA,-0.194
5,CGGTAAAG,0.162
6,ACTCAAGC,-0.128
7,GATCGCAC,0.105
8,CTGGACCC,-0.128
9,ACGATCTA,-0.27
10,ATCAGACC,0.132
11,GATGTAGC,-0.187
12,GGAAGTCC,0.112
13,ATCGCAAC,-0.0557
14,AATGAGCT,-0.155
15,AATATGCA,0.0295
16,ACCTCTTA,0.0228
17,AAAGGCTC,-0.133
18,TCTCACAA,-0.173
19,CTGATTCA,-0.14
20,ATCAAAAC,-0.0789
21,CGTCGATA,0.107
22,GACTATCA,-0.0319
23,CAGTTGGA,-0.0561
24,TCATAACA,0.05
25,ATCTCTAA,-0.0122

row,Sequence,PBM E-score
1,CCTTACGA,-0.168
2,TAAAATTA,0.109
3,AGAACCCG,0.165
4,ATTTATCC,0.28
5,CACATAGA,-0.0437
6,GAAATTAA,0.0176
7,CACTCTCA,-0.237
8,ACAGATCA,-0.209
9,GGCGTGGA,-0.0499
10,CTCCGTTC,0.333
11,AATCTAGC,-0.224
12,TCCCAAAA,-0.149
13,TAGCATCA,-0.204
14,GCATCAGC,-0.107
15,CACAGACC,0.0406
16,CAAGCAGG,-0.117
17,AATCTGAA,-0.188
18,CGTCTCGC,-0.06
19,AGCAACTC,-0.139
20,ACGGCCAA,0.068
21,AATTGAAT,-0.173
22,CCACCACC,-0.0853
23,ATCCGCGG,0.284
24,GTGACCCA,-0.184
25,CTACCACC,0.208

row,Sequence,PBM E-score
1,CGTGCACG,0.146
2,GATGTTTA,0.0404
3,ATAATAGA,-0.0563
4,CGACCACC,0.134
5,ATACACGA,0.00363
6,AGACAGGC,-0.231
7,AAGGTCCT,-0.0429
8,CATACATA,-0.0429
9,AATCGAGT,-0.186
10,CGATACCC,0.0462
11,AATAACGA,-0.0399
12,AGTGTTCG,-0.0968
13,CTGATCCC,-0.109
14,CTACATAG,-0.163
15,AGATGGCT,-0.12
16,AAGCTCAC,-0.283
17,CCCCTCGG,0.111
18,ATTCATTG,-0.111
19,GCTTGCGA,-0.171
20,ACCACGAC,-0.144
21,GCCAATAC,0.105
22,ATAAGTGA,-0.163
23,AATCAGGA,-0.268
24,AGCGTAGA,-0.0503
25,AGCTGCCC,-0.191

row,Sequence,PBM E-score
1,ACAACGGA,0.277
2,ATCACATG,-0.196
3,GACCCGCC,0.251
4,AAATGTTC,-0.138
5,ATTCCGCA,0.0974
6,CTTTGAGA,-0.0922
7,AACCCATG,-0.249
8,TGCCACAA,-0.202
9,CAACATTC,-0.229
10,CGTTACGC,0.129
11,CCCCCTTC,-0.0804
12,CTAAAAGC,0.0851
13,AGCGCTTC,-0.0248
14,CCCGAACG,0.168
15,CAAAATGG,-0.00142
16,TAACGGAA,0.19
17,ACCCGGGT,0.267
18,CACTTGGG,-0.0813
19,CTCGAGGA,-0.238
20,ACGGGACC,0.168
21,ACATGGTG,-0.042
22,AAGAGCAT,-0.197
